# Recombinant human monoclonal antibodies (heavy:light variable regions). ELISA EC50 on the named antigen, from 10 µg/ml down; IC50 against spike pseudovirus on HT1080-ACE2 cells, 48 h; lower = stronger. Calls: IC50 above 1,000 ng/ml = non-neutralizing; EC50 above 1,000 ng/ml = non-binder.
# B1: C5033 (protein)
# chain 1: QVQLVQSGTEVKKPGASVKISCKTSGYTFTNYYMHWVRQAPGQGLEWMGVINPSGGGSIYAQKFQGRLTMASDTSTGTVYMELDSLRSEDTALYYCARDRGETVYYGSGLGYWGQGTLVTVSS
# chain 2: DIVMTQSPDSLAVSLGERATINCKSSQSVLYRNNNKNYLAWYQQKPGQPPKLLIYWASTRESGVPDRFSGSGSGTDFTLTISSLQAEDVAVYYCQQYSSSPLTFGGGTKVEIK
# B2: C5117 (protein)
# chain 1: EVQLLESGGGLVQPGGSLRLSCAASAFIFRNYGMGWVRQAPGKGLEWVSGISGSGESTFYADSGKGRFTITRDNSKNTLYLQMKSLRAEDTAVYYCAKALAASGYWAFDFWGQGTMVTVSS
# chain 2: DIQMTQSPSSLSASVGDRVTITCQASQDISNYLNWYQQKPGKAPKLLIYDASNLETGVPSRFSGSGSGTDFTFTISSLQPEDIATYYCQQYDNLLITFGQGTRLEIK
# B3: C5112 (protein)
# chain 1: QLQLQESGPGLVKPSETLSLTCTVIGGSINSSRYYWAWIRQRPGKGLEWIGNIFYTGTTYYNPSLKSRVTVSVDKSKNQFSLKLSSVTAADTAVYYCARQLGPADFWGQGTLVTVSS
# chain 2: DIQMTQSPSSLSASVGDRVTITCRASQGISNSLAWYQHKPGKAPKLLLYSSSILESGVPSRFSGSGSGTDFTLTVSSLQPEDFATYYCQQYYSNPPFTFGQGTKLEIK
# B4: C5110 (protein)
# chain 1: EVQLVQSGAEVKKPGESLKISCKGSGYMFNTNWIGWVRQMPGKGLEWMGIIYLGDSETTYSPSFQGQVTLSADKSINTAYLQWSSLKASDTAIYYCARHRPFAATIDGAFGYMDVWGKGTTVTVSS
# chain 2: EIVLTQSPGTLSLSPGERATLSCRASESVDSSYLAWYGQKPGQAPRLLIYGASIRATGIPDRFSGSGSGTDFTLTISRLEPEDFAVYYCQQYGSSPPYTFGQGTKLEIK
# B5: C5118 (protein)
# chain 1: QVQLVESGGGVVQPGKSLRLSCAASGFSFDNYALHWVRQAPGKGLQWVAVISNGGNNKYYADSVKGRFTISRDNSKNTLFLQLNSLTTEDTALYYCARDLPLPSCSGDCYSGFDYWGQGTLVTVSS
# chain 2: SYELTQPPSVSVAPGKTARITCGGTDLGSKNIHWYQQKPGQAPMLVISYDHDRPSGIPDRFSGSNSGNTATLTISRVEVGDEADYYCQVWDTDGGLSEVVFGGGTKLTVL
# B6: C5116 (protein)
# chain 1: QLQLQESGPGLVTPSETLSLTCTVSGASISSSGYYWGWIRQPPGKGPEWIGNIYYSGNTYYKPSLKSRVTISVDTSKNQFFLNLSAVTVADTAIYFCARLRFYFDGSGYSRAFDIWGQGTMVTVSS
# chain 2: QSALTQPASVSGSPGQSITISCTGTSSDVGSYNLVSWYQHHPGKAPKLMIYEVTKRPSGVSNRFSGSKSGNTASLTISGLQAEDEADYFCCSYAGSVIFGGGTKLTVL
# B7: C5114 (protein)
# chain 1: QVQLVQSGGGLVQPGGSLRLSCAVSGLGVGHNYMSWVRQAPGKGLEWVSVIYSGGDTYYADSVKGRFTMSRDTSKNAVHLQMSSLRAEDTALYYCARIDFVRTAAYWGQGTLVTVSS
# chain 2: DIVMTQTPLSLSVTPGQPASISCKSSQSLLQTNGRTSLYWYLQKPGQSPQLLIYEVSNRFSGVPDRFSGSGSGTDFTLKISRVEAEDTGVYYCMQGIHLPRASGQGTKVEIK
# B8: C5113 (protein)
# chain 1: QVQLVQSGAEVKKPGSSVKISCKASGGTSNTYTVAWVRQAPGQGLEWMGRIIPMFQVPNYAQKFQGRITLTADKSTDTAYMELSSLRFEDTAVYYCATSPGINALDFQDWGQGTLVTVSS
# chain 2: DVVMTQSPLSLPVTLGQPASISCRSSQGLVYSDGDTYLTWFQQRPGQSPRRLIYKVSNRDSGVPDRFSGSGSGTDFTLKISRVEAEDVGVYYCMQATHWPPTFGQGTKVEIK
# B9: C5107 (protein)
# chain 1: QVQLVESGGGVVHPGRSLRLSCAASGFTFSKYGMHWIRQAPGKGLEWVAVVSYDGSDKYYADSVKGRFTVSRDNSNNTLYLQMNSLRAEDTAVYYCAKVIYSYAYVGEYYFDYWGQGTLVTVSS
# chain 2: DIQMTQSPSSLSASIGDRVTFTCQASQDIRNYLNWYQQKPGKAPKLLIYDASNLEAGVPSRFSGSGSGTDFTFTISSLQPEDIATYYCQQSLSFGGGTKVEIK
# B10: C5109 (protein)
# chain 1: QVQLQESGPGLVKPSETLSLTCSVSGHSISSGYFWAWIRQTPGKGLEWIGCISHSGTTHYNPSLRSRVTISLDTSKSQFFLDLTSVTAADTAVYYCARDPLGDYWGQGILVTVSS
# chain 2: DIQMTQSPSSLSASVGDRVTITCRASQGISNSLAWYQQRPGTAPKLLLYAASTLESGVPSRFSGSGSGTDFTLTISSLQPEDFATYYCQQYYSPPPRTFGQGTKVEI
# B11: C5034 (protein)
# chain 1: QVQLVQSGAEVKKPGASVKVSCKASGYTFTGYYIHWVRQAPGQGLEWMGWVNPMSGGTNCTQKFQGRVTMTRDTSITTVYMELSRLNSDDTAVYYCTRDLAFAVVTGGMDVWGQGTTVTVSS
# chain 2: QSALTQPPSASGSPGQSVTISCTGTSSDVGGYNYVSWYQQHPGKAPKLMIYEINKRPSGVPDRFSGSKSGNTASLTVSGLQAEDETDYYCSSYAGNNNWVFGGGTKLTVL
# B12: C5111 (protein)
# chain 1: QVQLVQSGAEVKKPGASVKVSCKASGYTLTNFGFSWVRQAPGQGLEWMGWISANNGNTDYAEKFQGRVTMTTDTSTSTAYVELKSLRSDDTAVYYCARNLFYYDRGGYYRGESYFDLWGRGTLVTVSS
# chain 2: QSVLTQPPSVSGAPGQRVTISCTGSNSNIGAGNDVHWYQQLPGTAPRLLIYGNTNRPSGVPARFSGSKSGTSASLAITGVQAEDEADYYCQSYDSSLSAHVVFGAGTKLTVL
# B13: C5119 (protein)
# chain 1: QVQLVQSGAEVKKPGASVKVSCKASGYTFTSYGISWVRQAPGQGLEWMGWISTFNGDTNYAQKFQDRVTMTTDTSTSTVYMDLRSLRSDDTAVYYCARVFAGYCNVGSCYWFDYWGQGTLVTVSS
# chain 2: EIVMTQSPATLSVSPGERATLSCRASQSISNNLGWYQQKPGQAPRLLIYGASTRATGIPARFSGSGSGTEFTLTISSLQSEDFAVYYCQQYDNWPPMWTFGQGTKVEIK
# B14: C5106 (protein)
# chain 1: QVQLVESGGGVVQPGRSLRLSCAASGFTFRTYGMHWVRQAPGKGLEWVAVISYDGDNQYHADSVKGRFTISRDNSKNTLYLQMNSLRTEDTAVYYCAKNLGPYCSGGNCLSGYFDYWGQGTLVTVSS
# chain 2: DIQMTQSPSSLSASVGDRVTITCQASQDISNFLIWYQQKPGNAPKVVIYDASNLEAGVPSRFSGSGSGTDFTFTISSLQPEDIATYYCQQYDNVPLTFGGGTKVEIK
# B15: C5105 (protein)
# chain 1: QVQLVESGGGVVQPGRSLRLSCVASGFTFRTYGMHWVRQTPGKGLEWLAVISYDGDKTHYADSVKGRFTISRDNSKNTVFLQMNSLRAEDTAVYYCAKNLGPYCSGGDCLSGYFDYWGQGILVTVSS
# chain 2: DIQMTQSPSSLSASVGDRVTITCQTSQDISNYLNWYQQKPGKAPKLLIYDVSNLETGVPSRFSGSGSGTDFSLTISSLQPEDIATYYCQQYNSVPLTFGGGTKVEIK
# Target: SARS-CoV-2 Omicron BA.1 spike pseudovirus
# Assay: pseudovirus neutralization IC50; higher = weaker neutralization
# Description: (§1)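 Single-round luciferase reporter pseudovirus mixed with antibody dilutions and put on HT1080-ACE2 clone 14 cells for 48 h; signal relative to no-antibody wells, four-parameter fit.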
row,Binder,pseudovirus neutralization IC50 [µg/mL]
1,B1,> 1
2,B2,> 1
3,B3,> 1
4,B4,> 1
5,B5,0.176
6,B6,> 1
7,B7,> 1
8,B8,0.036
9,B9,> 1
10,B10,0.00651
11,B11,> 1
12,B12,> 1
13,B13,0.108
14,B14,> 1
15,B15,> 1

# Target: SARS-CoV-2 Omicron BA.4/5 spike pseudovirus
# Assay: as above
# Description: as §1
row,Binder,pseudovirus neutralization IC50 [µg/mL]
1,B1,0.63
2,B2,> 1
3,B3,> 1
4,B4,> 1
5,B5,> 1
6,B6,> 1
7,B7,> 1
8,B8,> 1
9,B9,> 1
10,B10,> 1
11,B11,> 1
12,B12,> 1
13,B13,0.4
14,B14,> 1
15,B15,> 1

# Target: SARS-CoV-2 Wuhan-Hu-1 spike pseudovirus
# Assay: as above
# Description: as §1
row,Binder,pseudovirus neutralization IC50 [µg/mL]
1,B1,0.000852
2,B2,> 1
3,B3,0.00138
4,B4,> 1
5,B5,0.658
6,B6,> 1
7,B7,0.000552
8,B8,0.000426
9,B9,> 1
10,B10,0.00189
11,B11,0.00131
12,B12,0.74
13,B13,0.218
14,B14,> 1
15,B15,> 1

# Target: SARS-CoV-2 Wuhan-Hu-1 spike receptor-binding domain
# Assay: ELISA binding EC50; higher = weaker binding; ELISA of recombinant human antibody on coated antigen, from 10 µg/ml in fourfold dilutions; four-parameter fit.
row,Binder,ELISA binding EC50 [µg/mL]
1,B1,0.00386
2,B2,0.00509
3,B3,0.00237
4,B4,0.00667
5,B5,0.00273
6,B6,0.0133
7,B7,0.00239
8,B8,0.00223
9,B9,0.00379
10,B10,0.00376
11,B11,0.00393
12,B12,0.00712
13,B13,0.00527
14,B14,0.00255
15,B15,0.00373
